Test results reported in the CheMixHub viscosity set.
Further values from the same series stand in other lists.

Assay: xn = mol fraction of the nth substance listed

CCNCCO + O
viscosity [mPa·s], 101 kPa
Details	303.15 K	308.15 K	313.15 K	318.15 K	323.15 K
x1 = 0.0499	–	1.691	1.468	1.293	1.147
x1 = 0.0998	–	3.168	2.642	2.249	1.933
x1 = 0.1506	–	4.98	4.071	3.386	2.853
x1 = 0.2011	–	6.866	5.535	4.542	3.786
x1 = 0.2982	–	10.36	8.175	6.598	5.373
x1 = 0.4029	–	13.17	10.31	8.211	6.652
x1 = 0.4458	–	13.88	10.84	8.636	6.951
x1 = 0.5051	–	14.48	11.26	8.94	7.192
x1 = 0.5529	18.74	14.48	11.29	8.986	7.232
x1 = 0.6002	18.37	14.21	11.12	8.889	7.163
x1 = 0.6508	17.75	13.67	–	8.605	6.965
x1 = 0.7049	16.67	13	10.26	8.254	6.711
x1 = 0.7985	–	11.44	9.124	7.418	6.078
x1 = 0.9014	12.14	9.709	7.861	6.443	5.363

N[C@@H](CO)C(=O)O + O
viscosity [mPa·s]
Details	293.15 K	298.15 K	303.15 K	308.15 K	313.15 K	318.15 K	323.15 K
100 kPa, x1 = 0.000191	–	0.8931	0.7996	0.721	0.6546	–	–
100 kPa, x1 = 0.00036	–	0.8953	0.8015	–	–	–	–
100 kPa, x1 = 0.00045	–	0.8961	0.8023	0.7238	–	–	–
100 kPa, x1 = 0.000722	–	0.9	0.8056	0.7257	0.6587	–	–
100 kPa, x1 = 0.0009	–	0.9013	0.8067	0.7275	0.6598	–	–
100 kPa, x1 = 0.00108	–	0.9046	0.8096	0.7288	0.6614	–	–
100 kPa, x1 = 0.0013	–	–	0.8112	0.7316	–	–	–
100 kPa, x1 = 0.00146	–	0.9095	0.8139	0.7321	0.6643	–	–
100 kPa, x1 = 0.0018	–	0.9125	0.816	0.7356	0.6663	–	–
100 kPa, x1 = 0.001802	–	0.914	0.8178	0.7351	0.667	–	–
100 kPa, x1 = 0.001877	–	0.909	0.813	0.732	–	0.6	0.544
100 kPa, x1 = 0.002243	–	0.9198	0.8228	–	0.6705	–	–
100 kPa, x1 = 0.00225	1.037	0.9178	0.821	0.7398	–	–	–
100 kPa, x1 = 0.002673	1.042	0.9255	0.8277	0.7426	0.6739	–	–
100 kPa, x1 = 0.00269	1.043	0.9237	0.8256	0.7437	0.6726	–	–
100 kPa, x1 = 0.00314	–	0.9295	–	0.748	–	–	–
100 kPa, x1 = 0.003583	1.045	–	0.829	–	–	0.609	0.552
100 kPa, x1 = 0.00359	–	0.9351	0.8349	0.7519	0.6793	–	–
100 kPa, x1 = 0.00531	–	–	0.846	–	–	0.62	0.563
100 kPa, x1 = 0.007277	1.099	0.973	0.868	0.78	0.706	0.636	0.577
100 kPa, x1 = 0.008975	1.123	0.996	0.889	0.798	0.721	0.65	0.588
101.3 kPa, x1 = 0.0004484	–	–	–	0.722	–	0.597	–
101.3 kPa, x1 = 0.0008915	–	–	–	0.726	0.66	0.601	–
101.3 kPa, x1 = 0.001352	–	–	–	0.73	0.664	0.605	–
101.3 kPa, x1 = 0.001784	–	–	–	0.734	0.668	0.609	–
101.3 kPa, x1 = 0.002244	–	–	0.819	0.738	0.672	0.613	–
101.3 kPa, x1 = 0.002683	–	–	0.823	0.742	–	0.617	–
